# This is one part of the list.
# B1: LTL (Lotus tetragonolobus), P19664 (protein)
# chain: VSFNYTEFKDDGSLILQGDAKIWTDGRLAMPTDPLVNNPKTTRSAGRALYATPVPIWDSATGNVASFVTSFNFLFVIRELKYTPTDGLVFFLAPVGTEIPSGSTGGFLGIFDGSNGFNQFVAVEFDSYHNIWDPKSLRSSHVGIDVNSIMSLKAVNWNRVSGSLEKATIIYDSQTNILSVVMTSQNGQITTIYGTIDLKTVLPEKVSVGFSATTGNPEREKHDIYSWSFTSTLKEPEEQA
# How the values were obtained:
# Test in all cases: glycan array binding signal (z-score within array); higher = stronger binding
# Settings in all cases: glycan notation: IUPAC condensed, linker removed
# [1] = target: GlcNAc(b1-3)Gal(b1-4)GlcNAc(b1-3)[GlcNAc(b1-3)Gal(b1-4)GlcNAc(b1-3)]GalNAc
# Outline: (§1)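 From the Consortium for Functional Glycomics database, 3228 arrays were curated, keeping only those whose protein sequence was available. Binding is given as a within-array Z-score averaged across arrays sharing a protein sequence and across linkers. Negative Z-scores can be read as non-binding.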
# [2] = target: GlcNAc(b1-3)Gal(b1-4)GlcNAc(b1-6)[Gal(b1-3)]GalNAc
# Outline: as §1
# [3] = target: GlcNAc(b1-3)Gal(b1-4)GlcNAc(b1-6)[GlcNAc(b1-3)Gal(b1-3)]GalNAc
# Outline: as §1
# [4] = target: GlcNAc(b1-3)Gal(b1-4)GlcNAc(b1-6)[GlcNAc(b1-3)]Gal(b1-4)GlcNAc
# Outline: as §1
# [5] = target: GlcNAc(b1-3)GalNAc
# Outline: as §1
# [6] = target: GlcNAc(b1-3)Man
# Outline: as §1
# [7] = target: GlcNAc(b1-3)[GlcNAc(b1-4)][GlcNAc(b1-6)]GlcNAc
# Outline: as §1
# [8] = target: GlcNAc(b1-3)[GlcNAc(b1-6)]Gal(b1-4)GlcNAc
# Outline: as §1
# [9] = target: GlcNAc(b1-3)[GlcNAc(b1-6)]GalNAc
# Outline: as §1
# [10] = target: GlcNAc(b1-3)[GlcNAc(b1-6)]GlcNAc
# Outline: as §1
# [11] = target: GlcNAc(b1-3)[GlcNAc(b1-6)]GlcNAc(b1-4)GlcNAc
# Outline: as §1
# [12] = target: GlcNAc(b1-4)Gal(b1-4)GlcNAc
# Outline: as §1
# [13] = target: GlcNAc(b1-4)GlcNAc
# Outline: as §1
# [14] = target: GlcNAc(b1-4)GlcNAc(b1-4)GlcNAc
# Outline: as §1
# [15] = target: GlcNAc(b1-4)GlcNAc(b1-4)GlcNAc(b1-4)GlcNAc(b1-4)GlcNAc
# Outline: as §1
# [16] = target: GlcNAc(b1-4)GlcNAc(b1-4)GlcNAc(b1-4)GlcNAc(b1-4)GlcNAc(b1-4)GlcNAc
# Outline: as §1
# [17] = target: GlcNAc(b1-4)[GlcNAc(b1-6)]GalNAc
# Outline: as §1
# [18] = target: GlcNAc(b1-6)Gal(b1-4)GlcNAc
# Outline: as §1
# [19] = target: GlcNAc(b1-6)GalNAc
# Outline: as §1
# [20] = target: GlcNAc6S(b1-3)Gal(b1-4)GlcNAc
# Outline: as §1
# [21] = target: Kdn(a2-3)Gal(b1-3)GalNAc
# Outline: as §1
# [22] = target: Kdn(a2-3)Gal(b1-3)GlcNAc
# Outline: as §1
# [23] = target: Kdn(a2-3)Gal(b1-4)Glc
# Outline: as §1
# [24] = target: Kdn(a2-3)Gal(b1-4)GlcNAc
# Outline: as §1
# [25] = target: Kdn(a2-3)Gal(b1-4)[Fuc(a1-3)]GlcNAc
# Outline: as §1
# [26] = target: Kdn(a2-6)Gal(b1-4)GlcNAc
# Outline: as §1
# [27] = target: Man(a1-2)Man(a1-2)Man(a1-3)Man
# Outline: as §1
# [28] = target: Man(a1-2)Man(a1-2)Man(a1-3)[Man(a1-2)Man(a1-3)[Man(a1-2)Man(a1-6)]Man(a1-6)]Man(b1-4)GlcNAc(b1-4)GlcNAc
# Outline: as §1
# [29] = target: Man(a1-2)Man(a1-2)Man(a1-3)[Man(a1-2)Man(a1-6)[Man(a1-3)]Man(a1-6)]Man(b1-4)GlcNAc(b1-4)GlcNAc
# Outline: as §1
# [30] = target: Man(a1-2)Man(a1-2)Man(a1-6)[Man(a1-3)]Man
# Outline: as §1
# [31] = target: Man(a1-2)Man(a1-3)Man
# Outline: as §1
# [32] = target: Man(a1-2)Man(a1-3)[Man(a1-2)Man(a1-6)]Man
# Outline: as §1
# [33] = target: Man(a1-2)Man(a1-3)[Man(a1-2)Man(a1-6)]Man(a1-6)[Man(a1-2)Man(a1-2)Man(a1-3)]Man
# Outline: as §1
# [34] = target: Man(a1-2)Man(a1-3)[Man(a1-2)Man(a1-6)]Man(a1-6)[Man(a1-2)Man(a1-2)Man(a1-3)]Man(b1-4)GlcNAc(b1-4)GlcNAc
# Outline: as §1
# [35] = target: Man(a1-2)Man(a1-3)[Man(a1-3)[Man(a1-6)]Man(a1-6)]Man(b1-4)GlcNAc(b1-4)GlcNAc
# Outline: as §1
# [36] = target: Man(a1-2)Man(a1-3)[Man(a1-6)]Man(a1-6)[Man(a1-2)Man(a1-3)]Man(b1-4)GlcNAc(b1-4)GlcNAc
# Outline: as §1
# [37] = target: Man(a1-2)Man(a1-6)[Man(a1-3)]Man(a1-6)[Man(a1-2)Man(a1-2)Man(a1-3)]Man
# Outline: as §1
binder,measurement,setting,value
B1,glycan array binding signal (z-score),[1],-0.169
same,glycan array binding signal (z-score),[2],-0.142
same,glycan array binding signal (z-score),[3],-0.112
same,glycan array binding signal (z-score),[4],-0.263
same,glycan array binding signal (z-score),[5],-0.133
same,glycan array binding signal (z-score),[6],-0.127
same,glycan array binding signal (z-score),[7],-0.024
same,glycan array binding signal (z-score),[8],-0.236
same,glycan array binding signal (z-score),[9],-0.189
same,glycan array binding signal (z-score),[10],-0.398
same,glycan array binding signal (z-score),[11],-0.322
same,glycan array binding signal (z-score),[12],-0.415
same,glycan array binding signal (z-score),[13],-0.082
same,glycan array binding signal (z-score),[14],0.123
same,glycan array binding signal (z-score),[15],-0.032
same,glycan array binding signal (z-score),[16],0.542
same,glycan array binding signal (z-score),[17],-0.202
same,glycan array binding signal (z-score),[18],-0.053
same,glycan array binding signal (z-score),[19],-0.031
same,glycan array binding signal (z-score),[20],0.059
same,glycan array binding signal (z-score),[21],0.043
same,glycan array binding signal (z-score),[22],-0.235
same,glycan array binding signal (z-score),[23],-0.225
same,glycan array binding signal (z-score),[24],-0.141
same,glycan array binding signal (z-score),[25],0.286
same,glycan array binding signal (z-score),[26],-0.105
same,glycan array binding signal (z-score),[27],-0.279
same,glycan array binding signal (z-score),[28],-0.679
same,glycan array binding signal (z-score),[29],-0.458
same,glycan array binding signal (z-score),[30],-0.133
same,glycan array binding signal (z-score),[31],-0.264
same,glycan array binding signal (z-score),[32],-0.234
same,glycan array binding signal (z-score),[33],-0.222
same,glycan array binding signal (z-score),[34],-0.065
same,glycan array binding signal (z-score),[35],-0.842
same,glycan array binding signal (z-score),[36],0.062
same,glycan array binding signal (z-score),[37],-0.035
